Experimental data published in PMC4336329 (PLoS ONE, 2015).
Screen size: about 310,000 compounds; about 14,000 (4.5%) showed an effect of 50% or more. Effects have a minus sign here. Some of the results follow.

target: human ether-à-go-go-related gene (hERG) potassium channel (human, UniProt Q12809); experiment: primary screen, population patch clamp on CHO cells stably expressing hERG
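Also: peak tail current of the secondary pulse compared with the same well before compound.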

Chain of human ether-à-go-go-related gene (hERG) potassium channel (Q12809 whole entry, looked up): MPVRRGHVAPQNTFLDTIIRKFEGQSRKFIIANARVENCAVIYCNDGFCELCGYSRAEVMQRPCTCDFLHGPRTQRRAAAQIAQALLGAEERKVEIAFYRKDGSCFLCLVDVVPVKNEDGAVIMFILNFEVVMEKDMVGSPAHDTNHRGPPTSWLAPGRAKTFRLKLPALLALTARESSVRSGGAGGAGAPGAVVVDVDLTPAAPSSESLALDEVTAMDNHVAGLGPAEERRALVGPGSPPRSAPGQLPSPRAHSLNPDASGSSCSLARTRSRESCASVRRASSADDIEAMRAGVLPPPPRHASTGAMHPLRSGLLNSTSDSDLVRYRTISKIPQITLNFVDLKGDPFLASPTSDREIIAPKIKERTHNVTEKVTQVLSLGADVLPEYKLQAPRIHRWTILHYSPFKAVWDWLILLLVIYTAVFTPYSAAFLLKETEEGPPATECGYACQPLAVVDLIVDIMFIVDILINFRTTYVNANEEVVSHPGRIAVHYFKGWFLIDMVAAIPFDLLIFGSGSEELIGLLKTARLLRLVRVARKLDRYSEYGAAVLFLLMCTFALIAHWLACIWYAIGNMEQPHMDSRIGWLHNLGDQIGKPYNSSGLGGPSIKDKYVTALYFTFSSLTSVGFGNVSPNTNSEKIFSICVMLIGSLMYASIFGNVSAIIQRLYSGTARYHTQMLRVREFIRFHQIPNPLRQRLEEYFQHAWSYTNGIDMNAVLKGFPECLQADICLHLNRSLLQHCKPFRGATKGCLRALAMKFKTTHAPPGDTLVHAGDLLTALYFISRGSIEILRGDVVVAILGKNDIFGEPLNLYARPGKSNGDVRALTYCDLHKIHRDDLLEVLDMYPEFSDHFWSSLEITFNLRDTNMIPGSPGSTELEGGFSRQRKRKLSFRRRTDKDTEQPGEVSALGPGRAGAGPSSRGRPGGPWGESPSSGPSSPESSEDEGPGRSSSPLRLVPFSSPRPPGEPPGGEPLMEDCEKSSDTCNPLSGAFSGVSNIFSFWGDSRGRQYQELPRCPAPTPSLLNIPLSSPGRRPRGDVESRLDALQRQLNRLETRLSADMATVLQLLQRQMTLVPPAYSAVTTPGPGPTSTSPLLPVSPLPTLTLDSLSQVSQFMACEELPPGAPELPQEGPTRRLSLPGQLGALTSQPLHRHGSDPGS

Compared with O=C(COC(=O)c1ccccn1)Nc1cccc(Cl)c1Cl, O=C(COC(=O)Cc1ccccc1)Nc1ccc(F)cc1 is higher in “hERG current change (%, negative = inhibition) at 10uM” value: 14.6% for the first, 16.9% for the second.

Going from CC(=O)N1CCN(S(=O)(=O)c2cccc(C(=O)NC3CCC(C)CC3)c2)CC1 (centres unmarked) to CC1CCN(S(=O)(=O)c2ccc(C(=O)NC3CCS(=O)(=O)C3)cc2)CC1 (centres unmarked), the “hERG current change (%, negative = inhibition) at 10uM” value falls from 12.7% to -5.94%.

Going from Cc1ccc(S(=O)(=O)ON2C(=O)c3cccc4cccc(c34)C2=O)cc1 to Cc1ccc(S(=O)(=O)N2CCCC2C(=O)OCc2nc3ccccc3s2)cc1 (centres unmarked), the “hERG current change (%, negative = inhibition) at 10uM” value falls from 17.9% to -5.18%.

First: N#CC(c1ccc(F)cc1)c1ccc(C(=O)c2ccccc2)cc1 (centres unmarked)
Second: O=C(c1ccc2c(c1)CCN2S(=O)(=O)c1ccccc1)N1CCN(c2ccccc2F)CC1
The “hERG current change (%, negative = inhibition) at 10uM” value of the first is higher: 6.9% for the first, 6.59% for the second.

First: CC(C)CCn1c(NCCN(C)C)nc2c1c(=O)[nH]c(=O)n2C
Second: CC(C)CN(C(=O)/C=C/c1nc2ccccc2s1)C1CCS(=O)(=O)C1 (centres unmarked)
The “hERG current change (%, negative = inhibition) at 10uM” value of the first is lower: -23.2% for the first, -6.49% for the second.

Compared with Cn1c(=O)c(=O)n(C)c2cc(N3CCCC3)c(NS(=O)(=O)c3ccc(F)cc3)cc21, O=C1N(S(=O)(=O)c2ccccc2F)C(=O)C2(CCCC2)N1S(=O)(=O)c1ccccc1F is higher in “hERG current change (%, negative = inhibition) at 10uM” value: -16.2% for the first, 6.04% for the second.

Going from C/C(=N/O)c1ccccn1 to O=C(Nc1ccccc1C(=O)O)c1cncc(Br)c1, the “hERG current change (%, negative = inhibition) at 10uM” value rises from 0.00038% to 15.9%.

Going from CCC(C)(C)NC(=O)CN(C(=O)CCC(=O)Nc1nccs1)c1ccccc1C to COc1cccc(C(=O)NCC(=O)OCC(=O)Nc2ncc(Cl)cc2Cl)c1, the “hERG current change (%, negative = inhibition) at 10uM” value rises from 9.49% to 16.7%.

Compared with O=C(Cc1ccc([N+](=O)[O-])cc1)Nc1ccc(O)cc1C(=O)O, O=C(CN1C(=O)S/C(=C/c2ccncc2)C1=O)Nc1ccccc1 is higher in “hERG current change (%, negative = inhibition) at 10uM” value: 2.78% for the first, 6.44% for the second.

First: CC(=O)C(C)n1cnc2scc(-c3ccc(C)cc3)c2c1=O (centres unmarked)
Second: Cc1cc(Nc2ccc(N(C)C)cc2)n2ncnc2n1
The “hERG current change (%, negative = inhibition) at 10uM” value of the first is lower: 3.91% for the first, 11.7% for the second.

First: CCN(Cc1ccncc1)C(=O)c1ccc(C)o1
Second: CC(C)CC(C(=O)O)N(Cc1ccccc1)Cc1ccccc1 (centres unmarked)
The “hERG current change (%, negative = inhibition) at 10uM” value of the first is lower: -0.494% for the first, 0.82% for the second.

Going from O=C(NCC1CCCO1)c1ccc(S(=O)(=O)N2CCC(c3nc4ccc(Cl)cc4[nH]3)CC2)cc1 (centres unmarked) to O=c1[nH]c2cc3c(cc2cc1CN(CC1CCCO1)S(=O)(=O)c1ccc(Cl)cc1)OCCO3 (centres unmarked), the “hERG current change (%, negative = inhibition) at 10uM” value rises from -18% to -9.98%.

First: O=C(c1oc2ccccc2c1CSCc1ccccc1)N1CCN(c2ncccn2)CC1
Second: O=C(CN1CCN(C/C=C/c2ccccc2)CC1)NCc1ccccc1
The “hERG current change (%, negative = inhibition) at 10uM” value of the first is higher: 1.59% for the first, -73.3% for the second.

Compared with COCCNC(=O)Cn1cc(C(=S)N2CCCCC2)c2ccccc21, COC(=O)c1cc(Br)c(=O)n(CCN2CCCCC2)c1 is lower in “hERG current change (%, negative = inhibition) at 10uM” value: 18.7% for the first, 11.9% for the second.

Compared with Cc1nn(-c2ccccc2)c(C)c1C(=O)N1CCN(S(=O)(=O)c2ccccc2)CC1, Cc1cc(C)cc(NC(=O)CN2CCc3ccccc3C2)c1 is higher in “hERG current change (%, negative = inhibition) at 10uM” value: -25% for the first, -10.2% for the second.

Going from CCOC(=O)C1=C(C)NC(=O)NC1c1ccc([N+](=O)[O-])o1 (centres unmarked) to CCOC(=O)Cc1csc(NC(=O)c2ccc(C)c(S(=O)(=O)N3CCOCC3)c2)n1, the “hERG current change (%, negative = inhibition) at 10uM” value falls from 2.29% to -32%.

Compared with CC1CCc2nn(CC(=O)NCCCN3CCCC3=O)cc2C1 (centres unmarked), Nn1c(SCC(=O)NC2CCCCC2)nnc1-c1ccccc1 is lower in “hERG current change (%, negative = inhibition) at 10uM” value: 10.2% for the first, -0.171% for the second.

Compared with COc1cc(-c2nc3ccc(N4CCN(C)CC4)cc3[nH]2)cc(OC)c1OC, COc1ccccc1N1CCN(C2CCCN(C(=O)c3cscn3)C2)CC1 (centres unmarked) is lower in “hERG current change (%, negative = inhibition) at 10uM” value: 15.5% for the first, 11.3% for the second.

First: CC1CCN(C(=O)COC(=O)c2n[nH]c(=O)c3ccccc23)CC1
Second: CCOC(=O)C1(CCOC)CCN(Cc2cnc(-c3cccc(C)c3)nc2)CC1
The “hERG current change (%, negative = inhibition) at 10uM” value of the first is higher: -5.73% for the first, -5.81% for the second.

Compared with O=C(O)C(Cc1cn[nH]n1)=NO, Cc1nn(Cc2ccc(C(=O)N3c4ccc(F)cc4CCC3C)o2)c(C)c1Br (centres unmarked) is lower in “hERG current change (%, negative = inhibition) at 10uM” value: 10.2% for the first, -30.5% for the second.

First: Cc1ccc(C2CC(c3ccc(F)cc3)Nc3nc(N)nn32)cc1 (centres unmarked)
Second: Cc1cccc(NC(=O)Nc2ccc(Oc3c(F)c(F)c(F)c(F)c3F)cc2)c1
The “hERG current change (%, negative = inhibition) at 10uM” value of the first is higher: 5.79% for the first, -9.16% for the second.

Compared with CCc1nc(N)c(C#N)c(-c2cccnc2)c1C, CC(=O)Nc1ccc(C(=O)/C=C/c2ccco2)cc1 is higher in “hERG current change (%, negative = inhibition) at 10uM” value: 1.48% for the first, 5.69% for the second.
